Data as given in PMC12128885, “Myricetin-bound crystal structure of the SARS-CoV-2 helicase NSP13 facilitates the discovery of novel natural inhibitors” (Acta Crystallographica Section D: Structural Biology, 2025).

Columns and labels:
SARS-CoV-2 NSP13 [1] = biological target: T1, SARS-CoV-2 NSP13 (Severe acute respiratory syndrome coronavirus 2, UniProt P0DTD1); test: NSP13 ATPase assay (absorbance-based, Biomol Green); format: biochemical; conditions: 30 nM NSP13, 400 µM ATP, 30 min at RT
SARS-CoV-2 NSP13 [2] = biological target: T1, SARS-CoV-2 NSP13; conditions: read-out: IC50, unwinding activity; 3 nM NSP13, 1 mM ATP, 750 nM annealed DNA substrate, 10 min pre-incubation at RT

## O=C(/C=C/c1ccc(O)c(O)c1)O[C@H](Cc1ccc(O)c(O)c1)C(=O)O [Rosmarinic acid, (2R)-3-(3,4-Dihydroxyphenyl)-2-[(E)-3-(3,4-dihydroxyphenyl)prop-2-enoyl]oxypropanoic acid]
SARS-CoV-2 NSP13 [1]
  IC50, ATPase activity: No inhibition
SARS-CoV-2 NSP13 [2]
  IC50: 3.83 µM
